Among all 120,000 compounds or so, about 5,300 (4.4%) were called active. This list was built around the results that the source calls inconclusive (neither active nor inactive); the mix of calls is not that of the screen. The call rests on the fitted dose curve; in most records, active means well fitted inhibition curve with a large enough effect; inconclusive means small, poorly fitted or top-dose-only effect; inactive means no such curve, though single readings can be large or run the other way. Where the call is inconclusive, the potency comes from a doubtful curve fit.
Test: qHTS Primary assay for Inhibitors of Plasmodium falciparum Dd2 growth in vitro; further: nearly all actives have a fitted effect of over 65% in size;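 on activity, negative = inhibition: plate controls were DMSO vehicle for no effect and reference drug for full effect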
Conditions: P. falciparum Dd2 growth, SYBR Green, 72 h; activity, negative = inhibition: at 28.9 µM (top of the series) unless noted; series mostly up to 28.9 µM
How it was run: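 Infected erythrocytes (Dd2, 0.3% parasitemia, 2.5% hematocrit final) are added to compound in RPMI-1640/Albumax II medium, grown 72 h at 37C in low oxygen, then lysed with saponin/Triton-X containing SYBR Green and read by fluorescence.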
In the case of `CC1CCN(C(=O)[C@@H](C)C2CC[C@@]3(C)CC[C@H](NC(=O)Nc4cccc(F)c4)[C@@H](C)[C@@H]3[C@H]2O)CC1` (stereo partly specified), the Potency is reported as inconclusive: 12.6 µM [inhibitor, partial curve, poor fit].
In the case of `CCOc1ccc(NC(=O)c2c(NCc3cccs3)sc3c2CCC(C)C3)cc1` (stereo unspecified), the Potency is reported as inconclusive: 10 µM [inhibitor, single point].
In the case of `COc1cccc(C(=O)N2C(C(=O)NCc3ccccc3)COC23CCN(C(=O)CC(C)C)CC3)c1` (stereo unspecified), the Potency is reported as inconclusive: 0.355 µM [inhibitor, full curve, poor fit].
For `CCOC(=O)C1=C(CN2CCN(c3ccc(C)cc3C)CC2)NC(=O)NC1c1ccc(OC)cc1` (stereo unspecified), the Potency was inconclusive: 10 µM [inhibitor, single point].
For `CCN(CC)S(=O)(=O)c1cccc(C(=O)Nc2ccccc2C(=O)Nc2ccc(OC)cc2)c1`, the Potency was active: 7.08 µM.
With `O=C(NCc1ccc(F)cc1)N1CCCCCC1c1nc(-c2ccncc2)no1` (stereo unspecified) the Potency was inconclusive: 20 µM [inhibitor, single point].
In the case of `COc1ccc(C(=O)N2CCN(C(C(=O)O)c3ccc(F)cc3)CC2)cc1` (stereo unspecified), the Potency is reported as “inactive”.
For `O=C(NCc1cc2n(n1)CCCN(C1CCCCC1)C2)c1cccc(F)c1`, the Potency was inconclusive: 8.91 µM [inhibitor, partial curve].
In the case of `COc1cccc(CC(=O)N2C[C@@H](Oc3ccccc3)C[C@H]2C(=O)N2CCCC2)c1`, the Potency is reported as inconclusive: 20 µM [inhibitor, single point].
With `CC(=O)Nc1ccc(CN2CCC3(COc4ccccc4C(=O)N3)C2)cc1` (stereo unspecified) the Potency was inconclusive: 8.91 µM [inhibitor, partial curve, poor fit].
With `Cc1ccc(NC(=O)c2ccc(C)c(S(=O)(=O)N3CCCCCC3)c2)cc1` the Potency was inconclusive: 17.8 µM [inhibitor, single point].
For `CNCC(=O)N1CCCC(N2CCN(c3ccc(OC)cc3)CC2)C1` (stereo unspecified), the Potency was “inactive”.
For `CCOc1ccc(NC(=O)CSc2nc3ccsc3c(=O)n2CCC(C)C)cc1`, the Potency was “inactive”.
In the case of `CC(NC(=O)c1ccc(Cn2ccn3nc4c(c3c2=O)CCCC4)cc1)c1ccccc1` (stereo unspecified), the Potency is reported as inconclusive: 17.8 µM [inhibitor, single point].
In the case of `Cc1cn2nc(C(=O)NCc3cccnc3)cc2c(=O)[nH]1`, the Potency is reported as “inactive”.
With `CN(C)C[C@@H]1CN(Cc2ccccc2)C[C@H]1NC(=O)C1CCC1` the Potency was “inactive”.
For `Cc1oc2ccc(O)c(CN3CCCCCC3)c2c1C(=O)Nc1cccc(C(F)(F)F)c1`, the Potency was inconclusive: 0.0794 µM [inhibitor, partial curve, poor fit].
In the case of `COc1nccnc1-c1cc(NCCN(C)C)nc2[nH]ccc12`, the Potency is reported as inconclusive: 3.55 µM [inhibitor, partial curve, poor fit].
For `Cc1ccc(CN2CC[C@@H]3OCC(=O)N(Cc4ccccc4)[C@H]3CC2)o1`, the Potency was inconclusive: 3.98 µM [inhibitor, single point].
With `O=C(CN1C(=O)c2cccnc2Sc2ccccc21)Nc1cc(F)ccc1F` the Potency was inconclusive: 14.1 µM [inhibitor, partial curve, poor fit].
With `CCN1C(=O)c2ccccc2S(=O)(=O)c2ccc(C(=O)NCc3ccccc3OC)cc21` the Potency was inconclusive: 11.2 µM [inhibitor, single point].
For `O=C(Cc1c[nH]c2ncc(-c3cccnc3)cc12)NCc1ccccc1`, the Potency was active: 5.62 µM.
In the case of `CCN1C(=O)CCC2(C(=O)N3CCc4ccccc4C3)CCCC=C12` (stereo unspecified), the Potency is reported as inconclusive: 12.6 µM [inhibitor, single point].
With `COc1cccc(C(=O)N2[C@@H]3CC[C@H]2CC(NC(=O)c2cnc(C)cn2)C3)c1C` (stereo partly specified) the Potency was inconclusive: 7.94 µM [inhibitor, partial curve].
In the case of `Cc1cc(Nc2cccc(Cl)c2)nc2ccc(NC(=O)COc3ccc(Cl)cc3)cc12`, the Potency is reported as inconclusive: 1.41 µM [inhibitor, full curve].
In the case of `Cn1nccc1C(=O)N1[C@@H]2CC[C@H]1CC(NC(=O)c1ccncc1)C2` (stereo partly specified), the Potency is reported as “inactive”.
With `Cc1ccc(F)cc1S(=O)(=O)N1CCC(n2cnnc2C2CC2)CC1` the Potency was “inactive”.
With `Cc1nc2ccc(C(=O)N3CCC(OCc4cccnc4)CC3)cc2nc1C` the Potency was “inactive”.
For `COc1ccc(OC)c([S+](=O)([O-])c2nnn3c2nc(N2CCC(F)CC2)c2ccccc23)c1`, the Potency was inconclusive: 17.8 µM [inhibitor, single point].
In the case of `Cc1nc(-c2cnccn2)n(CC(=O)Nc2ccccc2)c(=O)c1C`, the Potency is reported as inconclusive: 17.8 µM [inhibitor, single point].
With `COc1cc(Nc2nc(-c3ccc(OC)c(OC)c3)nc3ccccc23)cc(OC)c1` the Potency was active: 8.91 µM.
In the case of `Cc1cccn2c(=O)c(C(=O)N3CCN(c4ccccc4)CC3)cnc12`, the Potency is reported as inconclusive: 17.8 µM [inhibitor, single point].
In the case of `COc1ccccc1Nc1c2c(nc3ccc(NC(=O)c4ccc(N(C)C)cc4)cc13)CCCC2`, the Potency is reported as active: 5.62 µM.
In the case of `Cc1ccc(-n2c(=O)c3oc4ccccc4c3n(Cc3cccc(F)c3)c2=O)cc1C`, the Potency is reported as inconclusive: 17.8 µM [inhibitor, single point].
In the case of `COc1ccccc1CN1CCC[C@H]1c1nc(-c2ccc(F)cn2)no1`, the Potency is reported as inconclusive: 2.51 µM [inhibitor, partial curve, poor fit].
In the case of `Cc1ccc(C(=O)N2CCCCCCNC(=O)[C@@H]3CCC[C@@H]32)s1`, the Potency is reported as inconclusive: 0.794 µM [inhibitor, full curve, poor fit].
With `CN(C)c1ccc(CNC(=O)c2ccc3nc(Cc4ccccc4)oc3c2)cc1` the Potency was “inactive”.
For `COCCN1CCOc2nc(-c3cc(F)cc(OC)c3)ncc2C1=O`, the Potency was “inactive”.
In the case of `O=C1COCC2(CN1Cc1ccccc1)CN(C(=O)C1(c3ccccc3)CC1)C2`, the Potency is reported as “inactive”.
In the case of `COc1ccc(CN2CCC3(Cc4ccccc4CNC3=O)C2)c(OC)n1` (stereo unspecified), the Potency is reported as inconclusive: 6.31 µM [inhibitor, partial curve, poor fit].
For `COc1ccc(C(=O)Nc2ccc3c(N4CCOCC4)ncnc3c2)c(C)c1`, the Potency was “inactive”.
In the case of `O=C(NCc1cccs1)c1cc(-c2cccnc2)c2nncn2n1`, the activity, negative = inhibition is reported as inconclusive: -107% [inhibitor].
For `CCOc1ccccc1NC(=O)Cn1c(=O)n(Cc2ccco2)c(=O)c2sc3ccccc3c21`, the Potency was inconclusive: 10 µM [inhibitor, single point].
With `CN1CCCC1CCNc1nccc(-c2cnn(-c3ccc(F)cc3)c2)n1` (stereo unspecified) the Potency was active: 8.91 µM.
In the case of `NCCCC(=O)N1CCCC2(Cc3ccccc3CN2C(=O)c2cccc(Cl)c2)C1` (stereo unspecified), the Potency is reported as “inactive”.
In the case of `CCCCC(CC)CNC(=O)CCCCCn1c(=O)[nH]c2ccsc2c1=O` (stereo unspecified), the Potency is reported as inconclusive: 0.0562 µM [inhibitor, full curve, poor fit].
For `COc1ccc(CCC(=O)N2CCC3(CC2)CC(C(=O)N2CCOCC2)N(C)C3)cc1` (stereo unspecified), the Potency was inconclusive: 5.62 µM [inhibitor, partial curve, poor fit].
With `CC(C)c1ccc(NC(=O)c2ccc(=O)n(Cc3ccccc3)c2)cc1` the Potency was inconclusive: 17.8 µM [inhibitor, single point].
In the case of `COc1ccc(-c2noc(-c3cccn3CC(=O)NCCC3=CCCCC3)n2)cc1F`, the Potency is reported as inconclusive: 2 µM [inhibitor, full curve, poor fit].
In the case of `COc1ccc(-c2noc(C(=O)O)c2[C@@H](C)NC(=O)C2CCCC2)cc1`, the Potency is reported as “inactive”.
In the case of `Cc1cccc(-n2c(SCC(=O)Nc3ccc(C)c(C)c3)nc3n[nH]c(C)c3c2=N)c1`, the Potency is reported as inconclusive: 10 µM [inhibitor, partial curve, poor fit].
In the case of `Cn1nc(-c2ccccc2)cc1[C@H]1CN2CC[C@H]1C[C@@H]2CNS(=O)(=O)Cc1ccccc1`, the Potency is reported as “inactive”.
With `O=C(Cn1nc2n(c1=O)CCCC2)NC1CCCC1` the Potency was “inactive”.
With `COC[C@H]1C[C@@H](NC2CCN(C(C)=O)CC2)[C@H](O)[C@@H]1O` the Potency was “inactive”.
In the case of `CS(=O)(=O)N1CCCC1c1noc(CCC(=O)NC2CCS(=O)(=O)C2)n1` (stereo unspecified), the Potency is reported as “inactive”.
In the case of `NC(=O)C1CCN(c2ncncc2-c2nc(-c3ccccc3)no2)CC1`, the Potency is reported as “inactive”.
For `O=C(Nc1ccc2c(N3CCCCC3)ncnc2c1)c1cc(F)cc(F)c1`, the Potency was inconclusive: 0.501 µM [inhibitor, full curve, poor fit].
With `COc1ccc(CCNC(=O)c2c(C)noc2-c2ccc(C(C)(C)C)cc2)cc1OC` the Potency was inconclusive: 3.16 µM [inhibitor, single point].
With `Cc1nc(-c2c3n(c(=O)n(CC(=O)Nc4ccc(F)c(Cl)c4)c2=O)CCCCC3)no1` the Potency was “inactive”.
In the case of `Cc1cccc(NC(=O)Cn2c(=O)n(Cc3ccccc3)c(=O)c3oc4ccccc4c32)c1C`, the Potency is reported as inconclusive: 17.8 µM [inhibitor, single point].
In the case of `OCc1cccc(-c2cc(-c3ccncc3)c3cncn3c2)c1`, the Potency is reported as inconclusive: 10 µM [inhibitor, partial curve, poor fit].
In the case of `CCc1noc(-c2ccn3c(CNC(=O)Cc4cccc(F)c4)nnc3c2)n1`, the Potency is reported as inconclusive: 0.224 µM [inhibitor, full curve, poor fit].
In the case of `Cc1ccc(CNC(=O)c2c(Nc3c(C)cccc3C)sc(C(=O)c3ccccc3)c2N)cc1`, the Potency is reported as “inactive”.
With `COc1cc(NC(=O)c2nn(C)c3c2COc2ccccc2-3)cc(OC)c1OC` the Potency was inconclusive: 17.8 µM [inhibitor, single point].
For `COc1ccc(CCNC(=O)c2ccc(Cn3c(SCc4ccccc4)nc4cccnc43)cc2)cc1`, the Potency was inconclusive: 5.62 µM [inhibitor, partial curve, poor fit].
With `CCOc1ccccc1NC(=O)Cn1c(=O)c(-c2noc(C)n2)c2n(c1=O)CCCC2` the Potency was inconclusive: 12.6 µM [inhibitor, single point].

Source: PubChem BioAssay AID1347417 (National Center for Advancing Translational Sciences (NCATS), 2020)
Potency means the concentration at half of the fitted maximal effect; tags describe the fitted curve by direction and shape.
